Holding throughout (test): concentration in plasma after dosing
Data set [1] deals with Rat. Particulars: dosed: Perfluorohexane-1-sulphonic acid – potassium salt, 4 mg/kg, Female, F344.
In data set [2] the test system is Rat. Particulars: dosed: Perfluorohexane-1-sulphonic acid – potassium salt, 32 mg/kg, oral, Male, Harlan Sprague Dawley.
Data set [3] concerns Rat. To be noted: dosed: Fluorotelomer alcohol 8+2, 40 mg/kg, oral, Female, Harlan Sprague Dawley.

Further values from the same series stand in other lists.

For `O=S(=O)([O-])C(F)(F)C(F)(F)C(F)(F)C(F)(F)C(F)(F)C(F)(F)F.[K+]` [Perfluorohexane-1-sulphonic acid – potassium salt], the concentration in plasma is 70200 ng/mL in the data set on Rat [1] (5 min); 40700 ng/mL in the data set with Rat [1] (3 h); 8630 ng/mL in the data set with Rat [1] (528 h); 180000 ng/mL with Rat [2] (6 h); 103000 ng/mL with Rat [2] (192 h).
As for `O=C(O)CCC(F)(F)C(F)(F)C(F)(F)C(F)(F)C(F)(F)C(F)(F)C(F)(F)F` [Fluorotelomer acid 7+3], the concentration in plasma in the data set on Rat [3] (0.25 h) stood at 83.2 ng/mL; with Rat [3] (6 h) it was 2380 ng/mL.

These data come from EPA's CvTdb concentration-time database.
